Data taken from publication PMC4336329 (PLoS ONE, 2015).
About 2,200 (0.71%) of roughly 310,000 compounds showed an effect of 50% or more. The effect is printed as a negative number. Some of the results follow.

molecular target: human ether-à-go-go-related gene (hERG) potassium channel (human, UniProt Q12809); experiment: primary screen, population patch clamp on CHO cells stably expressing hERG
Sequence (Q12809 whole entry, looked up): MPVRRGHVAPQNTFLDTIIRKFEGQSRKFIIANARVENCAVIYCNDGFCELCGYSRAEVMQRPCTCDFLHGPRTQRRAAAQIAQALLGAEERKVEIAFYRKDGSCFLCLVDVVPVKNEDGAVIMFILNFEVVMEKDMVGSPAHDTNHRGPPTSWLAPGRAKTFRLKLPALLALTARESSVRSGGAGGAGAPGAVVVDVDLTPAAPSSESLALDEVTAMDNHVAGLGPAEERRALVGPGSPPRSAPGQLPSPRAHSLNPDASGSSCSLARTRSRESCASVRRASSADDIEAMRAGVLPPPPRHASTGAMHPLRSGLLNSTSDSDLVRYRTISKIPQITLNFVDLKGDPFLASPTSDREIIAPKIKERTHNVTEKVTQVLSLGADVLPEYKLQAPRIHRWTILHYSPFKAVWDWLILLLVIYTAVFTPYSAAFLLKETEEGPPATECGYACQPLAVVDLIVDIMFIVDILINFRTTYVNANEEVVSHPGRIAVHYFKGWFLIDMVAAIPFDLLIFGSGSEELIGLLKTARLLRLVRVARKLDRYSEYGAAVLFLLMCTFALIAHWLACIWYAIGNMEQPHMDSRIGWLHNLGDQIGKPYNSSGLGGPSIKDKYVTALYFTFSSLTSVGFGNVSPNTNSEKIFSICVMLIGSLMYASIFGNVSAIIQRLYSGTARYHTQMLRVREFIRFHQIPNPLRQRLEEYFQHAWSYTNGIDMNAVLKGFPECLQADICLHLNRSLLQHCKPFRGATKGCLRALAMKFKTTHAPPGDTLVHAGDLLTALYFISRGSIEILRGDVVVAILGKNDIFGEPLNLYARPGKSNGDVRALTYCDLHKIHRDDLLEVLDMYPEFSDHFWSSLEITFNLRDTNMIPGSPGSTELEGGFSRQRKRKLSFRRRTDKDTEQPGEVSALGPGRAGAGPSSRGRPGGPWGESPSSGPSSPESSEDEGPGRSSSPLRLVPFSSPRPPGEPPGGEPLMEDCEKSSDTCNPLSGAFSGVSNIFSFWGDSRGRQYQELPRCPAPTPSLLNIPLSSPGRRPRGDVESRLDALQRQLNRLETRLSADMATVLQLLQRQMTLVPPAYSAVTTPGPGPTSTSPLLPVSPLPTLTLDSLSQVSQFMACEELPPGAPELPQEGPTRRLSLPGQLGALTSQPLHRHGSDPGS

In order of falling “hERG current change (%, negative = inhibition) at 1uM” value:
1. CN(C)c1ccc(CCN2CCOCC2)cc1  22%
2. Cc1cc(-c2nc3ccccc3[nH]2)ccc1N  21.2%
3. COc1ccc(OCc2nnc(SCC(=O)O)n2N)cc1  20.5%
4. CCN(/N=C/C=C/c1ccccc1)c1cc(=O)n(C)c(=O)[nH]1  17.9%
5. C/C(=N\NC(=S)Nc1ccc(C(C)C)cc1)c1ccc2c(c1)OCO2  17.6%
6. CCSc1ncc(Cl)c(C(=O)Nc2ccccc2F)n1  16.9%
7. CS(=O)(=O)N1CCC(C(=O)Nc2cccc(F)c2)CC1  16.6%
8. Cc1cccc(OCCC(=O)NCC(=O)Nc2cccc(C)c2C)c1  16.5%
9. Cc1cccc(C(=O)NCC(=O)OCC(=O)NC2CCCCCCC2)c1  16.2%
10. NC(=O)CC(NC(=O)Cc1cccc2ccccc12)c1ccc(N2CCN(c3ccccn3)CC2)c([N+](=O)[O-])c1 (stereo not shown)  15.9%
11. O=C(NCc1nnc(SCC(=O)N2CCN(c3ccccc3)CC2)o1)c1ccccc1  15.4%
12. Cc1cc(-c2ccccc2)nc2oc(C(=O)NN)c(N)c12  14.8%
13. CCN1C(=O)/C(=c2\s/c(=C3\Sc4ccccc4N3C)c(=O)n2C)N(C)C1=S  14.8%
14. COC(=O)c1ccc(CSc2nncn2N)cc1  14.6%
15. CCCC(=O)Nc1nnc(S(=O)(=O)N2CCCCCC2)s1  14.6%
16. O=C(N/N=C/c1ccc(F)cc1)c1cc[n+]([O-])cc1  14.4%
17. Cc1ccccc1C1c2[nH]c3ccccc3c2C[C@H]2C(=O)N(c3ccccc3C(=O)NCCN3CCOCC3)C(=O)N12 (stereo partly shown)  14.1%
18. O=C1CN(C(=O)COC(=O)c2cccc(Br)c2)c2ccccc2N1  13.5%
19. COc1ccc(C(=O)NCCCNC(=O)c2ccccn2)cc1  13.2%
20. COc1ccc(CN(C)c2ccc(S(=O)(=O)N3CCN(C)CC3)cc2[N+](=O)[O-])cc1OC  12.8%
21. Cc1ccnc(NC(=O)CNC(=O)c2ccccc2Br)c1  12.8%
22. COc1cccc(NC(=O)CN(C)C(=O)CSCC(=O)Nc2ccc(C)cc2)c1  12.4%
23. CNc1nc2c(-c3ccc(Cl)cc3)nnn2c2ccccc12  12.1%
24. Cc1cc(C)n(-c2ccc(C(=O)OCC(=O)Nc3ccc(S(=O)(=O)N4CCOCC4)cc3)cc2)n1  11.9%
25. O=C(COC(=O)c1ccc(O)cc1)Nc1ccccc1[N+](=O)[O-]  11.9%
26. COc1ccc(N2C(=O)CC(Nc3ccc(C(=O)O)cc3)C2=O)cc1OC (stereo not shown)  11.6%
27. Cc1ccc(S(=O)(=O)NCCc2cc3ccc(C)c(C)c3[nH]c2=O)cc1  11.4%
28. C=CCNS(=O)(=O)c1cc(S(=O)(=O)NCC=C)c(OC)cc1OC  11.1%
29. O=C(O)c1ccc(Oc2ccccc2)o1  11%
30. Cc1ccc(OC(F)F)c(N2C(=O)C3C4CCC(O4)C3C2=O)c1 (stereo not shown)  11%
31. CCC(C)NC(=O)c1cc2cc3ccc(OC)cc3nc2o1 (stereo not shown)  11%
32. Cc1ccccc1NC(=O)c1sc2nc3c(c(-c4ccco4)c2c1N)CCC3  11%
33. Cc1ccc(N=N/C(=C\O)C(=O)c2ccncc2)cc1  10.7%
34. Cc1cc2c(c(=O)n1CCN(C)C)C(c1ccncc1)C(C#N)=C(N)O2 (stereo not shown)  10.7%
35. CCCCn1c(N)c(N(CCOC)C(=O)CCNC(=O)c2ccccc2Cl)c(=O)[nH]c1=O  10.6%
36. C[C@@]1(CO)[C@H](O)CC[C@@]2(C)[C@H]1CC[C@H]1C[C@@H]3C[C@@]12CC[C@]3(O)CO  10.3%
37. CN(C)C(=O)CCSc1nnc(-c2ccco2)o1  10.2%
38. CC12CCC(=O)N1C(C(=O)NCc1ccc(Cl)cc1Cl)CS2 (stereo not shown)  10.1%
39. CC1CC(C)CN(C(=O)COC(=O)C2CCN(S(=O)(=O)c3c(Cl)cccc3Cl)CC2)C1 (stereo not shown)  10.1%
40. COc1ccc(OCC(=O)Nn2c(-c3ccc(OC)cc3)nc3ccccc3c2=O)cc1  10.1%
41. CCC(=O)OCC(=O)Nc1ccc([N+](=O)[O-])cc1OC  9.97%
42. Cc1ccc(C(=O)N/N=C/c2ccc(S(=O)(=O)[O-])o2)c(Cl)c1.[Na+]  9.84%
43. O=S(=O)(c1ccccc1)N1CCN=C1SCc1ccc(Cl)c(Cl)c1  9.41%
44. O=C(COc1ccccc1Cl)Nc1cnn(Cc2ccccc2)c1  9.23%
45. COCc1cc(C)n(CC(=O)N/N=C/c2ccc(-c3ccc(Cl)c(C(=O)O)c3)o2)c(=O)c1C#N  9.08%
46. O=C(O)C1CCN(C(=O)c2cccc3ccccc23)CC1  8.82%
47. O=C(COc1ccc(Cl)cc1Cl)Nc1nnc(C2=COCCO2)o1  8.81%
48. COc1ccc2nc(Cl)c(C#N)cc2c1  8.59%
49. CCCN1C(=O)/C(=N\OCC(=O)Nc2ccc(C(C)C)cc2)c2ccccc21  8.32%
50. CCC(=O)N1c2ccccc2-c2nnc(SC)nc2OC1c1ccc(OC)c(OC)c1 (stereo not shown)  8.23%
51. CCC1=NN2C(=N)/C(=C\c3cccn3-c3ccc(Cl)cc3)C(=O)N=C2S1  7.83%
52. CCOc1ccc(Cc2noc3c2C(=O)CC(C)(C)C3)cc1OCC  7.09%
53. O=C(C1CCCO1)N1CCN(S(=O)(=O)c2cccc3nsnc23)CC1 (stereo not shown)  7.09%
54. Cc1ccc(Nc2c([N+](=O)[O-])c(=O)n(C)c3ccccc23)cc1  6.86%
55. CC1Sc2ccc(S(=O)(=O)NCCc3ccc(Cl)cc3)cc2NC1=O (stereo not shown)  6.63%
56. O=C(CCc1nc2ccccc2c(=O)[nH]1)Nc1cc(C(F)(F)F)ccc1N1CCCC1  6.43%
57. COc1ccc(C2(C(=O)Nc3ccc(C(=O)N4CCOCC4)cc3)CCOCC2)cc1  6.36%
58. COc1ccc(O)c2c(=O)c3c(OC)cc4c(c3oc12)C1C=COC1O4 (stereo not shown)  5.98%
59. O=C(c1cccc(F)c1)N1CCN(c2ccc([N+](=O)[O-])c(N3CCOCC3)c2)CC1  5.64%
60. CCOc1ccc(N2C(=O)Nc3ccccc3C2(O)C(=O)N2CCN(c3ccccn3)CC2)cc1 (stereo not shown)  5.45%
61. CC(=O)n1cc([C@H]2C=C(C(=O)O)O[C@@H](OCCCCO)C2)c2ccccc21  5.32%
62. O=c1ccc(Oc2nc(N3CCCCC3)nc(N3CCCCC3)n2)n[nH]1  4.98%
63. CCOC(=O)C1=C(C)NC(=O)C(C#N)C1c1ccco1 (stereo not shown)  4.9%
64. CC1Cc2cc(/C(O)=C3/C(=O)C(=O)N(CCN4CCOCC4)C3c3cccc(O)c3)ccc2O1 (stereo not shown)  4.37%
65. Cc1ccc(NC(=O)NCCN2CCN(C(=O)Nc3ccc(C)cc3)CC2)cc1  3.82%
66. CC(C(=O)NCc1ccccn1)N1C(=O)c2ccccc2C1=O (stereo not shown)  3.06%
67. O=C(CSc1c2c(nc3cc(Cl)ccc13)CCCC2)NCCCN1CCOCC1  2.69%
68. COc1ccc(-c2nn(CC(=O)Nc3ccc(Cl)c(Cl)c3)c(=O)c3ccccc23)cc1  2.63%
69. Cc1ccc(-n2nc(C)c3c(C)c(CCC(=O)NCCCOC(C)C)c(C)nc32)cc1  2.46%
70. Cc1ccsc1/C=N/NC(=O)C1CC(=O)N(c2ccc(F)cc2)C1 (stereo not shown)  2.12%
71. COc1ccc(CC(=O)N2CCc3ccccc32)cc1  1.15%
72. O=C(CN(C(=O)CCC(=O)Nc1ccccn1)C1CCCC1)NCc1ccc(F)cc1  0.916%
73. COc1ccc(NC(=O)CS(=O)(=O)c2cccc(Cl)c2)cc1  0.836%
74. COC(=O)CCn1nc(-c2ccc(Cl)cc2)c2ccccc2c1=O  0.35%
75. Cc1cc(C)c(Cn2c(=O)n(CCCC(=O)NCc3ccco3)c(=O)c3sccc32)c(C)c1  0.0553%
76. COc1ccccc1NC(=O)CSc1nnc(Cc2cccn2C)n1CCc1ccccc1  -0.155%
77. Cc1ccc(C)c(CN2C(=O)c3ccccc3S(=O)(=O)c3ccc(C(=O)N4CCN(C)CC4)cc32)c1  -1.77%
78. O=C(CCS(=O)(=O)c1cc2c(cc1Cl)NC(=O)CO2)NCc1ccc(F)cc1  -2.42%
79. O=C(NCCc1cccs1)C1CC(c2cccc([N+](=O)[O-])c2)=NO1 (stereo not shown)  -3.65%
80. COc1ccc(N2CCN(C(=O)c3ccccc3N(C)S(=O)(=O)c3ccccc3)CC2)cc1  -6.68%
81. O=C(NCc1cccnc1)C1CC(c2ccc(Cl)c(Cl)c2)=NO1 (stereo not shown)  -7.1%
82. FC(F)(F)c1cc(-c2ccccc2)nc(-n2cncn2)n1  -14.3%
83. Cc1cccc([C@@H]2C[C@H]3CN(Cc4cccc(Cl)c4)C(=O)[C@]34CCCN24)n1  -26%
84. COc1ccc(CC(C)N2CCN(c3ccccc3)CC2)cc1OC (stereo not shown)  -41.9%
85. COc1cc2ncc(S(=O)(=O)c3ccccc3)c(N3CCC4(CC3)OCCO4)c2cc1OC  -47.8%
